Results: patent US6800434B2, “Peptides as NS3-serine protease inhibitors of hepatitis C virus” (priority 2000, dated 2004)
pKi: −log10 of the molar value. Starred links: 1 amine or outer side, 2 acyl side, 3 side chain; linkers in the order of their positions; H or OH if unused. Non-standard residues stand in square brackets, D forms with d. Residues, ends and D or L forms follow the SMILES beside them. *: point of attachment. Leuψ(COCO) = CC(C)C[C@H](N[*:1])C(=O)C(=O)[*:2]; Nleψ(COCO) = CCCC[C@H](N[*:1])C(=O)C(=O)[*:2]; X25 = C=CC[C@H](N[*:1])C(=O)C(=O)[*:2]; X31 = C#CC[C@H](N[*:1])C(=O)C(=O)[*:2]; X23 = CSC[C@H](N[*:1])C(=O)C(=O)[*:2]; X1 = CCC[C@H](N[*:1])C(=O)C(=O)[*:2]; X10 = CCC[C@H](N*)C(=O)C(N)=O; X29 = CCC[C@H](N*)C(=O)C(=O)O; NHPhenethyl = c1ccc(CCN*)cc1; NH(propargyl) = C#CCN*; OtBu = CC(C)(C)O*; NHAllyl = C=CCN*; OAll = C=CCO*; NHPr = CCCN*

Target: Recombinant heterodimeric HCV NS3/NS4A protease (strain 1a) (Hepatitis C virus genotype 1a, UniProt P27958)
Assay: biochemical
Conditions: Ki* Range

Row | Compound | pKi
1 | C=CCOC(=O)CNC(=O)C(=O)[C@H](CC(C)C)NC(=O)CNC(=O)[C@@H](NC(=O)[C@@H](NC(=O)[C@H](CCC(=O)O)NC(=O)[C@H](CCC(=O)O)NC(C)=O)C(C)C)C(C)C [Ac-EEVVG-L-(CO)-G-Oallyl] (Ac-EEVVG[Leuψ(COCO)]G-OAll) | 6.00 to 7.00
2 | COC(=O)CNC(=O)C(=O)[C@H](CSC)NC(=O)[C@@H]1CCCN1C(=O)[C@@H](NC(=O)[C@@H](NC(=O)[C@H](CCC(=O)O)NC(=O)[C@H](CCC(=O)O)NC(C)=O)C(C)C)C(C)C [Ac-EEVVP-C(Me)-(CO)-G-OMe] (Ac-EEVVP[X23]G-OMe) | 5.00 to 6.00
3 | C=CC[C@H](NC(=O)[C@@H]1CCCN1C(=O)[C@@H](NC(=O)[C@@H](NC(=O)[C@H](CCC(=O)O)NC(=O)[C@H](CCC(=O)O)NC(C)=O)C(C)C)C(C)C)C(=O)C(=O)NCC(=O)OCC [Ac-EEVVP-G(allyl)-(CO)-G-OEt] (Ac-EEVVP[X25]G-OEt) | 6.00 to 7.00
4 | C=CCOC(=O)CNC(=O)C(=O)[C@H](CC=C)NC(=O)[C@@H]1CCCN1C(=O)[C@@H](NC(=O)[C@@H](NC(=O)[C@H](CCC(=O)O)NC(=O)[C@H](CCC(=O)O)NC(C)=O)C(C)C)C(C)C [Ac-EEVVP-G(allyl)-(CO)-G-Oallyl] (Ac-EEVVP[X25]G-OAll) | 6.00 to 7.00
5 | C#CC[C@H](NC(=O)[C@@H]1CCCN1C(=O)[C@@H](NC(=O)[C@@H](NC(=O)[C@H](CCC(=O)O)NC(=O)[C@H](CCC(=O)O)NC(C)=O)C(C)C)C(C)C)C(=O)C(=O)NCC(=O)OCC=C [Ac-EEVVP-G(propynyl)-(CO)-G-Oallyl] (Ac-EEVVP[X31]G-OAll) | 6.00 to 7.00
6 | C=CCOC(=O)CNC(=O)C(=O)[C@H](CCCC)NC(=O)[C@@H]1CCCN1C(=O)[C@@H](NC(=O)[C@@H](NC(=O)[C@H](CCC(=O)O)NC(=O)[C@H](CCC(=O)O)NC(C)=O)C(C)C)C(C)C [Ac-EEVVP-nL-(CO)-G-Oallyl] (Ac-EEVVP[Nleψ(COCO)]G-OAll) | 7.00 to 9.00
7 | CCC[C@H](NC(=O)[C@@H]1CCCN1C(=O)[C@@H](NC(=O)[C@@H](NC(=O)[C@H](CCC(=O)O)NC(=O)[C@H](CCC(=O)O)NC(C)=O)C(C)C)C(C)C)C(=O)C(N)=O [Ac-EEVVP-nV-(CO)-Am, Ac-Glu-Glu-Val-Val-Pro-nVal-(CO)-CONH2] (Ac-EEVVP-X10) | 6.00 to 7.00
8 | CCC[C@H](NC(=O)[C@@H]1CCCN1C(=O)[C@@H](NC(=O)[C@@H](NC(=O)[C@H](CCC(=O)O)NC(=O)[C@H](CCC(=O)O)NC(C)=O)C(C)C)C(C)C)C(=O)C(=O)NCC(=O)NCCc1ccccc1 [Ac-EEVVP-nV-(CO)-G-2PhEtAm] (Ac-EEVVP[X1]G-NHPhenethyl) | 5.00 to 6.00
9 | CCC[C@H](NC(=O)[C@@H]1CCCN1C(=O)[C@@H](NC(=O)[C@@H](NC(=O)[C@H](CCC(=O)O)NC(=O)[C@H](CCC(=O)O)NC(C)=O)C(C)C)C(C)C)C(=O)C(=O)NCC(N)=O [Ac-EEVVP-nV-(CO)-G-Am] (Ac-EEVVP[X1]G-NH2) | 5.00 to 6.00
10 | CCC[C@H](NC(=O)[C@@H]1CCCN1C(=O)[C@@H](NC(=O)[C@@H](NC(=O)[C@H](CCC(=O)O)NC(=O)[C@H](CCC(=O)O)NC(C)=O)C(C)C)C(C)C)C(=O)C(=O)NCC(=O)O [Ac-EEVVP-nV-(CO)-G-OH, Ac-Glu-Glu-Val-Val-Pro-nVal-(CO)-Gly-OH] (Ac-EEVVP[X1]G-OH) | 7.00 to 9.00
11 | C=CCOC(=O)CNC(=O)C(=O)[C@H](CCC)NC(=O)[C@@H]1CCCN1C(=O)[C@@H](NC(=O)[C@@H](NC(=O)[C@H](CCC(=O)O)NC(=O)[C@H](CCC(=O)O)NC(C)=O)C(C)C)C(C)C [Ac-EEVVP-nV-(CO)-G-Oallyl, Ac-Glu-Glu-Val-Val-Pro-nVal(CO)-Gly-Oallyl] (Ac-EEVVP[X1]G-OAll) | 7.00 to 9.00
12 | CCC[C@H](NC(=O)[C@@H]1CCCN1C(=O)[C@@H](NC(=O)[C@@H](NC(=O)[C@H](CCC(=O)O)NC(=O)[C@H](CCC(=O)O)NC(C)=O)C(C)C)C(C)C)C(=O)C(=O)NCC(=O)OC(C)(C)C [Ac-EEVVP-nV-(CO)-G-OtBu] (Ac-EEVVP[X1]G-OtBu) | 6.00 to 7.00
13 | CCCNC(=O)CNC(=O)C(=O)[C@H](CCC)NC(=O)[C@@H]1CCCN1C(=O)[C@@H](NC(=O)[C@@H](NC(=O)[C@H](CCC(=O)O)NC(=O)[C@H](CCC(=O)O)NC(C)=O)C(C)C)C(C)C [Ac-EEVVP-nV-(CO)-G-Propylamide] (Ac-EEVVP[X1]G-NHPr) | 5.00 to 6.00
14 | C=CCNC(=O)CNC(=O)C(=O)[C@H](CCC)NC(=O)[C@@H]1CCCN1C(=O)[C@@H](NC(=O)[C@@H](NC(=O)[C@H](CCC(=O)O)NC(=O)[C@H](CCC(=O)O)NC(C)=O)C(C)C)C(C)C [Ac-EEVVP-nV-(CO)-G-allylAm] (Ac-EEVVP[X1]G-NHAllyl) | 6.00 to 7.00
15 | C#CCNC(=O)CNC(=O)C(=O)[C@H](CCC)NC(=O)[C@@H]1CCCN1C(=O)[C@@H](NC(=O)[C@@H](NC(=O)[C@H](CCC(=O)O)NC(=O)[C@H](CCC(=O)O)NC(C)=O)C(C)C)C(C)C [Ac-EEVVP-nV-(CO)-G-propynylamide] (Ac-EEVVP[X1]G-{NH(propargyl)}) | 5.00 to 6.00
16 | CCC[C@H](NC(=O)[C@@H]1CCCN1C(=O)[C@@H](NC(=O)[C@@H](NC(=O)[C@H](CCC(=O)O)NC(=O)[C@H](CCC(=O)O)NC(C)=O)C(C)C)C(C)C)C(=O)C(=O)O [Ac-EEVVP-nV-(CO)-OH, Ac-Glu-Glu-Val-Val-Pro-nVal(CO)-Carboxylic Acid] (Ac-EEVVP-X29) | 5.00 to 6.00
